From the antibiotic and cytotoxicity screens of Wong et al. (2023) come the findings set out here.

Some of the results follow.

One assay relates to HSkMC (human skeletal muscle cells). The experiment in a line: cytotoxicity call (relative viability < 0.9). The settings on record: 10 µM.
Consider `COc1ccc(CN(C)C[C@H]2Oc3ccc(NS(C)(=O)=O)cc3CC(=O)N([C@H](C)CO)C[C@H]2C)cc1`, for which the cytotoxicity call was “inactive”.
`CC1(C)S[C@@H]2[C@H](NC(=O)C3(N)CCCCC3)C(=O)N2[C@H]1C(=O)O`: the cytotoxicity call is “inactive”.
`CCCCC[C@H]1C[C@H](O[C@H]2O[C@@H](CO)[C@@H](O)[C@@H](O)[C@@H]2O)CC(=O)O1`: the cytotoxicity call was “inactive”.
The same measure, in the same setting: as for `COc1ccc(NC(=O)Nc2ccc3c(c2)C(=O)N([C@@H](C)CO)C[C@@H](C)[C@@H](CN(C)C(=O)NC2CCCCC2)OCCCC[C@H](C)O3)cc1`, the entry is “inactive”; as for `Cc1cc(-c2ccccc2)nnc1NCCN1CCOCC1.Cl.Cl`, “inactive”.
Take `C[C@@H]1CN([C@H](C)CO)C(=O)c2cc(C#CCN(C)C)cnc2O[C@@H]1CN(C)C(=O)c1cnccn1`: the cytotoxicity call is “inactive”.
Consider `C[C@H]1CN([C@@H](C)CO)C(=O)Cc2cc(NC(=O)Nc3ccc(C(F)(F)F)cc3)ccc2O[C@H]1CN(C)Cc1ccccc1`, for which the cytotoxicity call is “active”.
As to `Cc1noc(C)c1S(=O)(=O)Nc1ccc2c(c1)CC(=O)N([C@@H](C)CO)C[C@H](C)[C@H](CN(C)S(=O)(=O)c1ccccc1)O2`, the cytotoxicity call was “inactive”.
For `CN(C)C(=O)c1cc2c(c(-c3cccc(/C=C/c4ccccc4)c3)n1)[C@H](CCO)N([S@@](=O)C(C)(C)C)C2`, the cytotoxicity call is “inactive”.

For another assay, the system named is HepG2. In words: cytotoxicity call (relative viability < 0.9). The settings on record: 10 µM.
Take `C[C@H](CO)N1C[C@H](C)[C@@H](CN(C)C(=O)Cc2ccccc2)OCCCC[C@H](C)Oc2ccc(NS(=O)(=O)c3ccc(F)cc3)cc2C1=O`: the cytotoxicity call is “inactive”.
Same read-out and setting: under `Clc1nc(-c2ccccn2)nc2scc(-c3ccccc3)c12` stands “inactive”; under `CO[C@@H](CN(C)S(=O)(=O)c1ccc(Cl)cc1)[C@H](C)CN([C@H](C)CO)S(=O)(=O)c1cccc(Cl)c1`, “inactive”; under `COc1ccc(S(=O)(=O)N(C)C[C@@H]2Oc3c(cccc3N(C)C)C(=O)N([C@@H](C)CO)C[C@H]2C)cc1`, “inactive”.
For `C[C@H]1CN([C@@H](C)CO)C(=O)c2cc(NS(C)(=O)=O)ccc2O[C@@H]1CN(C)C(=O)Nc1ccc(F)cc1`, the cytotoxicity call is “active”.
Turning to `C[C@@H]1CCCCO[C@H](CN(C)Cc2ccccc2)[C@H](C)CN([C@H](C)CO)C(=O)c2cc(NC(=O)Nc3ccc4c(c3)OCO4)ccc2O1`, the cytotoxicity call is “inactive”.
Consider `COc1ccc(S(=O)(=O)N(C)C[C@@H]2Oc3c(cccc3N(C)C)C(=O)N([C@H](C)CO)C[C@H]2C)cc1`, for which the cytotoxicity call is “inactive”.
For the compound `CSc1scc(-c2cc(Cl)cc(Cl)c2)c1C#N`, the cytotoxicity call is “inactive”.
Same read-out and setting: as for `C[C@H](CO)N1C[C@H](C)[C@H](CN(C)C(=O)c2cccc(F)c2)Oc2cc(C#CC3CC3)ccc2S1(=O)=O`, the entry is “inactive”; as for `COCC(=O)Nc1ccc2c(c1)C(=O)N(C)C[C@H](OC)[C@H](C)CN(C(=O)Cc1cccnc1)[C@@H](C)CO2`, “inactive”; as for `CC(=O)c1c(O)cc(O)cc1O`, “inactive”.
As for `CCCCc1cc(CCCC)n2nc(-c3ccccc3)cc2n1`, the cytotoxicity call is “inactive”.
Regarding `C[C@@H]1CN([C@@H](C)CO)C(=O)c2cccc(NC(=O)C3CCOCC3)c2O[C@@H]1CN(C)Cc1ccc(C(=O)O)cc1`, the cytotoxicity call is “inactive”.
Turning to `CS(=O)(=O)Nc1ccc2c(c1)[C@H]1C[C@@H](CC(=O)NCc3ccc(-c4ccccc4)cc3)O[C@H](CO)[C@H]1O2`, the cytotoxicity call was “inactive”.
For the compound `C[C@@H]1CN([C@H](C)CO)C(=O)c2cc(NC(=O)Nc3ccc(F)cc3)ccc2O[C@@H](C)CCCCO[C@@H]1CN(C)C(=O)NC1CCCCC1`, the cytotoxicity call was “inactive”.
As for `C[C@@H]1CCCCO[C@@H](CN(C)Cc2ccc(Cl)c(Cl)c2)[C@@H](C)CN([C@H](C)CO)C(=O)c2cc(NC(=O)C3CCCCC3)ccc2O1`, the cytotoxicity call is “active”.
With `Cc1noc(C)c1NC(=O)N(C)C[C@H]1Oc2ccc(NC(=O)C3CC3)cc2C(=O)N([C@H](C)CO)C[C@H]1C`, the cytotoxicity call was “inactive”.
Consider `C[C@H]1CN([C@@H](C)CO)S(=O)(=O)c2ccc(C#Cc3ccc(F)cc3)cc2O[C@@H]1CN(C)S(=O)(=O)c1cn(C)cn1`, for which the cytotoxicity call was “inactive”.
As for `O=C(C[C@@H]1CC[C@@H]2[C@H](COC[C@H](O)CN2S(=O)(=O)c2cccc(Cl)c2)O1)NCc1ccncn1`, the cytotoxicity call was “inactive”.
For the compound `COc1ccc(NC(=O)Nc2ccc3c(c2)C(=O)N([C@H](C)CO)C[C@@H](C)[C@@H](CN(C)S(=O)(=O)c2ccc(F)cc2)OCCCC[C@@H](C)O3)cc1`, the cytotoxicity call was “inactive”.
On to `O=C1CC[C@@H](C(=O)N2CSC[C@H]2C(=O)O)N1`, for which the cytotoxicity call is “inactive”.
Regarding `C[C@H](CO)N1C[C@H](C)[C@@H](CN(C)Cc2ccc(-c3ccccc3)cc2)Oc2c(NS(=O)(=O)c3cccs3)cccc2C1=O`, the cytotoxicity call is “inactive”.
With `C[C@@H]1CN([C@@H](C)CO)C(=O)c2cc(C#CC3(O)CCCC3)cnc2O[C@@H]1CN(C)C(=O)Nc1ccc2c(c1)OCO2`, the cytotoxicity call was “inactive”.
For `C[C@@H]1CN([C@@H](C)CO)S(=O)(=O)c2ccc(C#Cc3ccccc3)cc2O[C@@H]1CN(C)S(C)(=O)=O`, the cytotoxicity call is “inactive”.
Regarding `C[C@@H]1CN([C@@H](C)CO)C(=O)c2cc(-c3cccnc3)cnc2O[C@@H]1CN(C)C(=O)Nc1ccc2c(c1)OCO2`, the cytotoxicity call was “inactive”.
Same read-out and setting: as for `CC(C)NC(=O)Nc1ccc2c(c1)C(=O)N([C@H](C)CO)C[C@H](C)[C@@H](CN(C)Cc1ccc3c(c1)OCO3)O2`, the entry is “inactive”; as for `CCC(=O)N1C[C@]2(CN(C2)C(=O)CN2CCOCC2)c2c([nH]c3cc(ccc23)OC)[C@H]1CO`, “inactive”; as for `C[C@H]1CN([C@@H](C)CO)C(=O)Cc2cc(NC(=O)c3ccncc3)ccc2O[C@@H]1CN(C)C(=O)Nc1ccc2c(c1)OCO2`, “inactive”.
For the compound `C[C@@H]1CCCCO[C@@H](CN(C)CC2CC2)[C@H](C)CN([C@H](C)CO)C(=O)c2cc(NS(C)(=O)=O)ccc2O1`, the cytotoxicity call is “inactive”.
The same measure, in the same setting: under `C[C@@H]1CN([C@@H](C)CO)C(=O)c2cc(-c3cccc(C(=O)N(C)C)c3)cnc2O[C@H]1CN(C)C(=O)Cc1ccccn1` stands “inactive”; under `C[C@H]1CN([C@@H](C)CO)C(=O)c2cc(NC(=O)C3CC3)ccc2O[C@@H]1CN(C)Cc1ccc(-c2ccccc2)cc1`, “inactive”; under `COc1ccc(CN(C)C[C@H]2Oc3ccc(NS(C)(=O)=O)cc3CC(=O)N([C@H](C)CO)C[C@H]2C)cc1`, “inactive”.
On to `CC1(C)S[C@@H]2[C@H](NC(=O)C3(N)CCCCC3)C(=O)N2[C@H]1C(=O)O`, for which the cytotoxicity call was “inactive”.
Regarding `CCCCC[C@H]1C[C@H](O[C@H]2O[C@@H](CO)[C@@H](O)[C@@H](O)[C@@H]2O)CC(=O)O1`, the cytotoxicity call is “inactive”.
On the same count and under the same terms, as for `COc1ccc(NC(=O)Nc2ccc3c(c2)C(=O)N([C@@H](C)CO)C[C@@H](C)[C@@H](CN(C)C(=O)NC2CCCCC2)OCCCC[C@H](C)O3)cc1`, the entry is “inactive”.
Regarding `Cc1cc(-c2ccccc2)nnc1NCCN1CCOCC1.Cl.Cl`, the cytotoxicity call is “inactive”.
For `C[C@@H]1CN([C@H](C)CO)C(=O)c2cc(C#CCN(C)C)cnc2O[C@@H]1CN(C)C(=O)c1cnccn1`, the cytotoxicity call is “inactive”.
Turning to `C[C@H]1CN([C@@H](C)CO)C(=O)Cc2cc(NC(=O)Nc3ccc(C(F)(F)F)cc3)ccc2O[C@H]1CN(C)Cc1ccccc1`, the cytotoxicity call is “active”.
As for `Cc1noc(C)c1S(=O)(=O)Nc1ccc2c(c1)CC(=O)N([C@@H](C)CO)C[C@H](C)[C@H](CN(C)S(=O)(=O)c1ccccc1)O2`, the cytotoxicity call was “inactive”.
On to `CN(C)C(=O)c1cc2c(c(-c3cccc(/C=C/c4ccccc4)c3)n1)[C@H](CCO)N([S@@](=O)C(C)(C)C)C2`, for which the cytotoxicity call is “inactive”.
